Patent US20260184783A1 (Merck Sharp & Dohme, published 2026)
Like-named read-outs stand apart in the source and are kept apart here.

Legend:
[1] = target: extracellular domain of PD-1 (1-199) fused to the PK subunit (human, UniProt Q15116 fragment); assay: cell-based or functional assay
[2] = target: T1, extracellular domain of LAG-3 (1-477) fused to the EA subunit (human, UniProt P18627 23-477); assay: cell-based or functional assay
T1 sequence (looked up): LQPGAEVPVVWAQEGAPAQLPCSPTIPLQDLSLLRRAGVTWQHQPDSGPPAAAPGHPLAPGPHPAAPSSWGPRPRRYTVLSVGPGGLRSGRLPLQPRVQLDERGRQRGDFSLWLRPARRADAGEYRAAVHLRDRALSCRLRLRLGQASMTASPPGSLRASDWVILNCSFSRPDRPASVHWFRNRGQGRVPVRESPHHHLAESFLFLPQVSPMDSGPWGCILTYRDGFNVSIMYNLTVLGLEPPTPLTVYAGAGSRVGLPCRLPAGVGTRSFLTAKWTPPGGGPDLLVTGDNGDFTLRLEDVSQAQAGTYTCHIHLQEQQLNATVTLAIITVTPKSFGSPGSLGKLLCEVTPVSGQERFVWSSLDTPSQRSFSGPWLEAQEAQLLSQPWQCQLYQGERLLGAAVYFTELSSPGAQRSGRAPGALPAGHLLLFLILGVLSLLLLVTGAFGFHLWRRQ

[3] = target: T2, human LAG-3 expressed on cells (human, UniProt P18627 23-525); assay: cell-based or functional assay
T2 sequence: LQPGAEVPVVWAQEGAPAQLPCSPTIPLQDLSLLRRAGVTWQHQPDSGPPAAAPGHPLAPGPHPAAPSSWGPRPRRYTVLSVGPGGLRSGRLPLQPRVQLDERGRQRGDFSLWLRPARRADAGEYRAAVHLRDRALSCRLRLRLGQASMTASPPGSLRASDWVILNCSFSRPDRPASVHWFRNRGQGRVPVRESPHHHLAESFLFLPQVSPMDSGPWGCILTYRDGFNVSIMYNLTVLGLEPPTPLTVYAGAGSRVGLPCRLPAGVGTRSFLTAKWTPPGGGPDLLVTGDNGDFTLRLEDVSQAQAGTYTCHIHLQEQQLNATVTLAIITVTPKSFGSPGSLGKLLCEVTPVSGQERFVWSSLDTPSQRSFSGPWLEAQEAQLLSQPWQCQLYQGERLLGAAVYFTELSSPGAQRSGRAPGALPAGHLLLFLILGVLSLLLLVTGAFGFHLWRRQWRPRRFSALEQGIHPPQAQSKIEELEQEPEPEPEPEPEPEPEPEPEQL

[4] = target: T3, human PD-1 expressed on cells (human, UniProt Q15116 25-288); assay: cell-based or functional assay
[5] = target: T2, human LAG-3 expressed on cells; assay: cell-based or functional assay; remark: listed apart in the source
MSA = assay: SPR, Biacore T100; MSA block of Table G, Nanobody as analyte
Sequence of MSA (P07724 25-608): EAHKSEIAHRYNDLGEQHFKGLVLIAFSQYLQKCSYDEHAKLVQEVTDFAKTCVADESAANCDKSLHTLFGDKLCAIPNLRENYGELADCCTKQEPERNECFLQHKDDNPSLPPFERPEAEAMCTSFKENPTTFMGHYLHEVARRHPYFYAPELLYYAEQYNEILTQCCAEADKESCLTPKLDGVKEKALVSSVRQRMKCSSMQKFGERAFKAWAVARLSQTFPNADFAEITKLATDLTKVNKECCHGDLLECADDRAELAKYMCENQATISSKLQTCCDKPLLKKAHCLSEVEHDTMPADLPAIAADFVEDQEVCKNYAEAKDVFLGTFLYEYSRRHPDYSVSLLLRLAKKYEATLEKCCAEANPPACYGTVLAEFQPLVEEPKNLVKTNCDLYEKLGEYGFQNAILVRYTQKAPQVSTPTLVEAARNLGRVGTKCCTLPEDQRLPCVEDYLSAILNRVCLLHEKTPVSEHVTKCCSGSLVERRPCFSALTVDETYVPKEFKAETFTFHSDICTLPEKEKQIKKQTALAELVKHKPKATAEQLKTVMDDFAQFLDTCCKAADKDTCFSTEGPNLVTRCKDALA

[6] = target: T3, human PD-1 expressed on cells; assay: flow cytometry on CHO-K1 cells expressing human PD-1; ABH0074 + PE goat anti-mouse
T3 sequence (Q15116 25-288 limits assumed): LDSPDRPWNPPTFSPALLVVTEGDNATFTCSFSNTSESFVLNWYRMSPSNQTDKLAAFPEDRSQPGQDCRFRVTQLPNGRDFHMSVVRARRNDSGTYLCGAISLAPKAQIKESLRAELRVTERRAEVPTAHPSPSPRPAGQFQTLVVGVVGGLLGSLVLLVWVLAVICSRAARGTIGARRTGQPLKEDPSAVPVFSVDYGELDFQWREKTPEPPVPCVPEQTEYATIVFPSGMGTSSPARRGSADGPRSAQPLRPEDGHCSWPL
Description: (§1) A Nanobody dilution series was prepared in assay buffer: PBS/10% FBS/0.05% sodium azide. 1×10⁵ cells/well were transferred to a 96-well V-bottom plate and resuspended in 100 μL Nanobody dilution.

[7] = target: T2, human LAG-3 expressed on cells; assay: flow cytometry on CHO-K1 cells expressing human LAG-3; ABH0074 + PE goat anti-mouse
Description: as §1

[8] = target: T4, rhesus/cynoLAG-3 expressed on CHO cells (rhesus/cynomolgus monkey, UniProt A0A5F8A874 23-533); assay: flow cytometry on CHO-K1 cells expressing rhesus/cyno LAG-3; ABH0074 + PE goat anti-mouse
T4 construct: also called CHO.rhesus/cynoLAG3; rhesus/cynomolgous monkey LAG-3
T4 sequence: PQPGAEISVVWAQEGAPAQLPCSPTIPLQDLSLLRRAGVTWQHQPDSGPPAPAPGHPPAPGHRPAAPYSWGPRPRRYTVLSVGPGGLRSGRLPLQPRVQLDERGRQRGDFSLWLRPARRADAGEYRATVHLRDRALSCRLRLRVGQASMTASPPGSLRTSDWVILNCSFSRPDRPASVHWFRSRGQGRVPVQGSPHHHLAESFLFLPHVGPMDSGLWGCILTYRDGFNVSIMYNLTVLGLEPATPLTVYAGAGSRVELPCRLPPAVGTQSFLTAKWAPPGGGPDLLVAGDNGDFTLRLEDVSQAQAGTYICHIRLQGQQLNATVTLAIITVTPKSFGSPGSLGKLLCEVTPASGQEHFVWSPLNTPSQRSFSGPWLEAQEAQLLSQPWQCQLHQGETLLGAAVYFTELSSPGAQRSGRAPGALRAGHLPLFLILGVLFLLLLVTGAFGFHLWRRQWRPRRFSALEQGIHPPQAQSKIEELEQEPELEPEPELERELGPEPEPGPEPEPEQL
Description: as §1

Rhesus Serum Albumin [9] = target: T5, Rhesus Serum Albumin (rhesus, UniProt Q28522 17-600); assay: SPR, Biacore T100; Rhesus Serum Albumin immobilised on CM5, Nanobody as analyte; Langmuir with mass transport
T5 construct: also called RhSA; rhesus albumin
Description: (§2) Kinetic analysis of the Nanobodies was performed by SPR technology, using the Biacore T100 instrument (GE Healthcare). […] After immobilization, surfaces were deactivated with 1M ethanolamine/HCl (pH 8.5). The flow rate during the sensor preparation was set on 5 μl/min.
(§3) Sensorgram processing and data analysis was performed with Biacore T100 Evaluation Software Version 2.0.4 (GE Healthcare). […] Processed curves were evaluated via fitting with the model ‘Langmuir with Mass Transport’.

Rhesus Serum Albumin [10] = target: T5, Rhesus Serum Albumin; assay: as above; remark: listed apart in the source
T5 sequence (Q28522 17-600 limits assumed): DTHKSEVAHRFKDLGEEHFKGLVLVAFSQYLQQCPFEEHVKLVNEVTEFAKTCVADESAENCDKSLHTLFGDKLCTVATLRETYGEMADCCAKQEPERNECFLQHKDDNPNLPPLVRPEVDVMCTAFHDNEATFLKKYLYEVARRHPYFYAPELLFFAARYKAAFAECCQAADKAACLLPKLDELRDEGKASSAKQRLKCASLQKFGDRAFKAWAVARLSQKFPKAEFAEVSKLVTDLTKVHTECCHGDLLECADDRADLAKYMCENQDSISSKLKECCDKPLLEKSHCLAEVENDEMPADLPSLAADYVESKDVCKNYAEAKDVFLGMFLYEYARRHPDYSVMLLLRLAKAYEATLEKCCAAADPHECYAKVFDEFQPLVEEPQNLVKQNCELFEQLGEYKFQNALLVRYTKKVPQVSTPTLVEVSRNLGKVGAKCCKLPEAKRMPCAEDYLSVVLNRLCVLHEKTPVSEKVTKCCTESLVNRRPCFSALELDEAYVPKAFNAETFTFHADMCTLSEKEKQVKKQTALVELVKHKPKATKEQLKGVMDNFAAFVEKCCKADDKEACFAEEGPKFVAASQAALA
Description: as §2, §3

[11] = target: T3, human PD-1 expressed on cells; assay: flow cytometry competition: blockade of human PD-L1-hFc binding to CHO-K1 cells expressing human PD-1; PE goat anti-human IgG
Description: (§4) Ligand competition assays were performed on human PD-1 over-expressing CHO cells. A Nanobody dilution series was prepared in assay buffer: PBS/10% FBS/0.05% sodium azide. […] 2×10⁴ cells/well were seeded in V-bottom 96-well plates and resuspended in 200 μL/well of the Nanobody/ligand dilution. After 90 minutes incubation at 4° C., the cells were washed with 100 μL/well assay buffer and resuspended in 100 μL/well PE-labeled Goat anti-human IgG (Southern Biotech, 2043-09). Samples were incubated for 30 minutes at 4° C., washed, and resuspended in 100 μL/well of 5 nM TOPRO3 (LifeTechnologies, T3606) solution before analysis on FACS CANTO II (BD).

[12] = target: T3, human PD-1 expressed on cells; assay: as above; remark: listed apart in the source
Description: as §4

[13] = target: T3, human PD-1 expressed on cells; assay: flow cytometry competition: blockade of human PD-L2-hFc binding to CHO-K1 cells expressing human PD-1; PE goat anti-human IgG
Description: as §4

B1: F023700931 (1PD102C12 (E1D, L11V, A14P, A74S, K83R, I89L)-35GS-1PD102C12 (L11V, A14P, A74S, K83R, I89L)-35GS-F0237611B09 (L11V, A14P, R41P, N43K, A62S, A74S, … (bispecific antibody)
chain: DVQLVESGGGVVQPGGSLRLSCAASGSIASIHAMGWFRQAPGKEREFVAVITWSGGITYYADSVKGRFTISRDNSKNTVYLQMNSLRPEDTALYYCAGDKHQSSWYDYWGQGTLVTVSSGGGGSGGGGSGGGGSGGGGSGGGGSGGGGSGGGGSEVQLVESGGGVVQPGGSLRLSCAASGSIASIHAMGWFRQAPGKEREFVAVITWSGGITYYADSVKGRFTISRDNSKNTVYLQMNSLRPEDTALYYCAGDKHQSSWYDYWGQGTLVTVSSGGGGSGGGGSGGGGSGGGGSGGGGSGGGGSGGGGSEVQLVESGGGVVQPGGSLRLSCAASGRTFSDYVMGWFRQAPGKEREFVAAISESGGRTHYADSVKGRFTISRDNSKNTLYLQMNSLRPEDTALYYCATTLLWWTSEYAPIKANDYDYWGQGTLVTVSSGGGGSGGGGSGGGGSGGGGSGGGGSGGGGSGGGGSEVQLVESGGGVVQPGGSLRLSCAASGRTFSDYVMGWFRQAPGKEREFVAAISESGGRTHYADSVKGRFTISRDNSKNTLYLQMNSLRPEDTALYYCATTLLWWTSEYAPIKANDYDYWGQGTLVTVSSGGGGSGGGGSGGGGSGGGGSGGGGSGGGGSGGGGS[about 120 residues not spelt out]
notes: pentavalent Nanobody fusion: two PD-1 modules, two LAG-3 modules, one anti-albumin module; Pichia or CHO expressed; also called F023700931-CHO-EXP1
EC50 (read off the curve), proximity assay RLU [1]: ~90 pM | EC50 (read off the curve), proximity assay RLU [2]: ~90 pM | EC50 (read off the curve), IL-2 MSD-signal [3]: ~4 nM | EC50 (read off the curve), IL-2 pg/ml [4]: ~0.7 nM | EC50 (read off the curve), IL-2 pg/ml [5]: ~0.7 nM | Kd (MSA): ~4.1 µM | koff (MSA): < 0.6 s⁻¹ | kon (MSA): > 500000 M⁻¹ s⁻¹ | EC50 (read off the curve) [6]: ~2 nM | EC50 (read off the curve) [7]: ~200 pM | EC50 (read off the curve) [8]: ~300 pM | Kd (Rhesus Serum Albumin [9]): 270 nM | koff (Rhesus Serum Albumin [9]): 0.0084 s⁻¹ | kon (Rhesus Serum Albumin [9]): 32000 M⁻¹ s⁻¹ | Kd (Rhesus Serum Albumin [10]): 270 nM | koff (Rhesus Serum Albumin [10]): 0.0084 s⁻¹ | kon (Rhesus Serum Albumin [10]): 32000 M⁻¹ s⁻¹ | IC50 (read off the curve) [11]: ~600 pM | IC50 (read off the curve) [12]: ~400 pM | IC50 (read off the curve) [13]: ~400 pM
